Assay results reported in PubChem BioAssay AID652104 (National Center for Advancing Translational Sciences (NCATS), 2013).
Where “and” joins values, the source holds several entries; their conditions need not be identical. Identical values can stand only once. Hit rate of the full screen: of about 410,000 compounds, about 7,200 (1.8%) were called active. Inconclusive results, whose numbers are uncertain, are shown with a selection of clear calls. Calls come from the whole dose curve; as a rule, active = well fitted activation curve with a large enough effect; inconclusive = small, poorly fitted or top-dose-only effect, or another doubt; inactive = no such curve, though single readings can be large or run the other way. Where the call is inconclusive, the potency comes from a doubtful curve fit.

Assay: qHTS of TDP-43 Inhibitors; note: nearly all actives have a fitted effect of over 50% in size; for growth rescue (activation): % of control where 0% means no effect
Details: TDP-43 expressing yeast growth rescue, BacTiter-Glo, 24 h; growth rescue (activation): at 46.1 µM (top of the series) unless noted
In short: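 Cell-based yeast growth screen: TDP-43 expression induced in galactose, inoculum OD600=0.02 after raffinose pregrowth to mid-log. Read-out BacTiter-Glo luminescence at 24 hr, 30 deg C; inhibition of toxicity seen as signal increase.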
Potency is the fitted concentration of half-maximal effect; tags give direction and shape of the fitted curve.

Potency, active:
O=C(c1cnn(-c2ccccc2)c1)c1cc(F)ccc1O 10 µM, CC[C@@H]1Cc2[nH][nH]c(=O)c2[C@@H](c2ccc(Cl)cc2)O1 15.8 µM, O=C(Cc1ccc(-n2cccc2)cc1)N1CCN(c2ccccc2F)CC1 17.8 µM, CC(C)(C)c1cc(NCc2ccccn2)n2ncc(-c3ccc(Cl)cc3)c2n1 22.4 µM, O=C(NNC(=O)c1ccccn1)c1ccc(OC(F)F)cc1 31.6 µM, S=C(Nc1cccc(Br)c1)c1ccccc1 12.6 µM, N/C(=N\OC(=O)c1ccc(Cl)cc1)c1ccccn1 10 µM, O=C(CSc1nnnn1C1CCCCC1)Nc1nc2c(s1)CCCC2 12.6 µM

Potency, inconclusive:
CC(C)c1ccc(Nc2nc(N3CCOCC3)nc(N3CCOCC3)n2)cc1 10 µM [activator, partial curve], CC1SC(c2cccc(Cl)c2)NC1=O (stereo not given) 11.2 µM [activator, partial curve], CCc1ccc2nc(NC(=O)CSCc3c(C)noc3C)sc2c1 22.4 µM [activator, single point], CCn1nc(C(=O)Nc2cccc(S(=O)(=O)N3CCCC3)c2)c2ccccc2c1=O 35.5 µM [activator, partial curve], CC(C)(C)c1cn(-c2ccc(Cl)cc2)c(=S)[nH]1 1.26 µM [activator, partial curve], CCC(=O)c1ccc(N2CCN(C(=O)c3cccc(F)c3)CC2)c(F)c1 22.4 µM [activator, single point], O=C(CCCC(=O)c1ccccc1)NCCc1ccccc1F 11.2 µM [activator, partial curve, poor fit], Cc1ccc(Sc2c(C)nn(C(=O)c3ccc(Br)cc3)c2C)cc1 35.5 µM [activator, partial curve, poor fit], COc1ccc(Nc2ncnc3onc(C)c23)c(OC)c1 14.1 µM [activator, partial curve], COc1ccc(Cl)cc1NC(=O)NCCc1c(C)nn(C)c1C 15.8 µM [activator, partial curve, poor fit], COc1cccc(NC(=O)c2c(N3CCCC3=O)c3cc(C)ccc3n2C)c1 12.6 µM [activator, partial curve], COc1ccc(CCNC(=O)c2c(C)nn(CC(C)C)c2Cl)cc1 25.1 µM [activator, partial curve], CCOc1ccc(-n2ccnc2SCC(=O)Nc2ccc3c(c2)OCO3)cc1 10 µM [activator, partial curve], CC(C)Nc1nc(Cl)nc(NC2CCCCC2)n1 10 µM [activator, partial curve], O=C(c1cccc(F)c1)N1CCN(c2ccc([N+](=O)[O-])c3cccnc23)CC1 35.5 µM [activator, single point], COc1ccc(C2C(C(=O)N3CCOCC3)=C(C)NC3=C2C(=O)CC(C)(C)C3)c(OC)c1 (stereo not given) 7.94 µM [activator, full curve], Cc1cc(Nc2ccc(Br)cc2)nc2ccccc12 17.8 µM [activator, single point], Cc1cccc(Sc2ccc([N+](=O)[O-])cc2[N+](=O)[O-])n1 15.8 µM [activator, single point], O=C1CC(c2ccc(Cl)cc2)c2cc3c(cc2N1)OCCO3 (stereo not given) 3.55 µM [activator, full curve], O=Cc1c(NCCc2ccc(F)cc2)c2ccccc2[nH]c1=O 14.1 µM [activator, partial curve], COc1cccc(C#CC2=CC(=O)C[C@H](c3ccc(F)cc3)C2)c1 22.4 µM [activator, single point], COc1ccc(NC(=O)CCN2CCN(S(=O)(=O)c3cc(Cl)ccc3OC)CC2)cc1 1.12 µM [activator, full curve, poor fit], Cc1c(-c2ncn[nH]2)sc(C#N)c1-c1ccccc1 15.8 µM [activator, single point], CN(Cc1ccc2nsnc2c1)Cc1nc(Cc2cccc(F)c2)no1 15.8 µM [activator, single point], O=C(NC1CCCCC1)c1cc(-c2ccc(F)cc2)on1 17.8 µM [activator, partial curve], Cc1ccc(-c2nc(CS(=O)CC(=O)N3CCN(c4ccc(F)cc4)CC3)c(C)o2)cc1 (stereo not given) 10 µM [activator, partial curve] and 35.5 µM [activator, single point], COc1cc2[nH]c(C(=O)N3CCC(Cc4ccccc4)CC3)cc2c(OC)c1OC 31.6 µM [activator, single point], CC(=O)N1CCOc2cc(S(=O)(=O)Nc3c(C)cccc3C(C)C)c(Cl)cc21 7.08 µM [activator, full curve, poor fit], COc1cccc(Nc2c([N+](=O)[O-])cncc2[N+](=O)[O-])c1 20 µM [activator, single point], O=C(Cc1ccccc1[N+](=O)[O-])NCCCc1ccccc1 22.4 µM [activator, partial curve], Cc1ccccc1NCN1C(=O)C2C3C=CC(C3)C2C1=O (stereo not given) 3.16 µM [activator, single point], O=C(Cc1ccc(Cl)cc1)N1CCc2ccccc2C1 14.1 µM [activator, partial curve], Cc1ccccc1NC(=O)CSC(N)=O 12.6 µM [activator, single point], CC(C)Oc1ccc(CNC(=O)C2CCCCN2S(=O)(=O)c2ccc(F)cc2)cc1 (stereo not given) 35.5 µM [activator, partial curve], COc1ccc2nc(SC)cc(C)c2c1 10 µM [activator, partial curve], O=C(c1ccccc1Cc1ccccc1)N1CCN(S(=O)(=O)c2ccccc2[N+](=O)[O-])CC1 12.6 µM [activator, partial curve], CCC(Cc1ccccc1)NC(=O)CCn1cccc1 (stereo not given) 8.91 µM [activator, partial curve, poor fit], O=[N+]([O-])c1cc(Br)c2c(c1)CCN2 7.08 µM [activator, full curve], Cc1cc2cc(CNC(=O)c3ccc4c(c3)OCO4)ccc2n1C 14.1 µM [activator, single point], O=C(c1ccccc1NS(=O)(=O)c1ccc(Cl)cc1)N1CCc2ccccc21 22.4 µM [activator, partial curve], O=C(Cc1ccc(Cl)cc1Cl)Nc1ccncc1Cl 12.6 µM [activator, single point], NC(c1csc(Nc2cnccn2)n1)C1CCCCC1 (stereo not given) 0.562 µM [activator, partial curve, poor fit], S=c1nccc(-c2ccc(Cl)cc2)[nH]1 20 µM [activator, partial curve], CCCCNc1c(-c2ccc(SC3CCCCC3)c(OC)c2)nc2ccc(Cl)cn12 6.31 µM [activator, partial curve], CC(=O)c1c(N2CCN(Cc3ccccc3)CC2)[nH]c(-c2ccccc2)nc1=S 7.08 µM [activator, partial curve], c1ccc(OCCOc2ncnc3ccccc23)cc1 22.4 µM [activator, partial curve, poor fit], COc1ccc(Cc2nn3c(-c4ccccc4OC)nnc3s2)cc1 14.1 µM [activator, single point]

Growth rescue (activation), inactive:
O=C(O)CC1(CC(=O)Nc2ccc(Oc3cccc(C(F)(F)F)c3)nc2)CCCC1 12.2%, Cc1ccccc1C(=O)Nc1nnc(S(=O)(=O)N(C)c2ccc(Cl)cc2)s1 5.15%, CC(=O)Nc1ccc(Nc2c(CCC(C)C)c(C)c(C#N)c3nc4ccccc4n23)cc1 6.79%, CCCCn1c(SCc2nc3ccccc3s2)nc2cc(S(N)(=O)=O)ccc21 -24.3%, Cc1ccc2c(c1)COc1c3ccc(C(=O)O)cc3nn1-2 5.35%, COC(=O)N(C)C[C@@H]1OCc2cn(nn2)CCCC(=O)N([C@@H](C)CO)C[C@H]1C 21.5%, COc1ccc(Cn2cnc3c4cc(F)ccc4n(C)c3c2=O)cc1 -5.57%, COCCCN=C1NN=C(c2cc(C)n(-c3ccccc3)c2C)CS1 -3.96%, CCCSc1ncc(Cl)c(C(=O)Nc2scc(-c3ccc(C)cc3)c2C(=O)OCC)n1 0%, O=C(COc1ccc2oc(-c3ccccc3)cc(=O)c2c1)NCc1ccco1 -1.01%, CCOc1ccc(CCNC(=O)c2cccc(-n3c(C)nc4cccnc43)c2C)cc1 1.64%, COc1ccccc1NC(=O)Cn1nnc(C(=O)Nc2ccccc2Br)c1N 19.5%, CCc1cccc(C)c1NC(=O)Cn1cc2c(n1)CCCCC2 10.6% [at 9.22 µM], COC(=O)c1ccccc1NC(=O)N1CCC(n2c(C)nc3cccnc32)CC1 16.3%, CC(C)(C)C(=O)Nc1ccc2nc(SCC(=O)N3CCc4ccccc43)sc2c1 -16.8%
